From PubChem BioAssay AID624202 (National Center for Advancing Translational Sciences (NCATS), 2012)
Screen size: about 380,000 compounds; about 4,000 (1.1%) were called active. Inconclusive results, whose numbers are uncertain, are shown with a selection of clear calls. Calls follow the shape of the dose curve; as a rule, active = well fitted activation curve with a large enough effect; inconclusive = small, poorly fitted or top-dose-only effect; inactive = no such curve, though single readings can be large or run the other way. Potencies of inconclusive entries are doubtful fits and often do not repeat.

Assay: qHTS Assay to Identify Small Molecule Activators of BRCA1 Expression; also: nearly all actives have a fitted effect of over 80% in size
Details: MCF7-BRCA1-FFLuc reporter, luminescence, 48 h; activation: at 46.1 µM (top of the series), scaled: vehicle 0%, 10 µM genistein 100% unless noted
Procedure, shortened: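 Quantitative HTS in MCF7 cells stably reporting BRCA1 expression via firefly luciferase. Compound treatment lasts 48 h at 37 °C in phenol-red free MEM. Activation is expressed relative to genistein at 10 microM and DMSO.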
Potency is read from the fitted curve at half-maximal effect; tags tell the direction and shape of the fitted curve.

Row | SMILES | Potency | activation
1 | O=C(Nc1nnc(C2CCCCC2)s1)c1ccc(Br)s1 | active: 5.01 µM | –
2 | C#CCNC(=O)/C=C/c1ccc(C)cc1 | active: 11.2 µM | –
3 | COc1cccc2cc(-c3nc4ccccc4[nH]3)c(=O)oc12 | active: 3.16 µM | –
4 | Cc1ccc(Nc2nc(NCc3ccco3)nc3nccnc23)cc1 | – | inactive: 0%
5 | Cc1cccc(CSc2ccc(-c3cccs3)nn2)c1 | inconclusive: 12.6 µM [activator, partial curve, poor fit] | –
6 | COCc1cc(C)nc(OCC(=O)N/N=C/c2ccccc2O)c1C#N | – | inactive: -44.2%
7 | Clc1ccccc1Cn1nnc(-c2ccccc2)n1 | inconclusive: 28.2 µM [activator, single point] | –
8 | O=C(Nc1cccc(OC(F)(F)F)c1)c1ccc(-c2cccnc2)c2ccoc12 | inconclusive: 17.8 µM [activator, partial curve, poor fit] | –
9 | N#Cc1c(NC(=S)NC(=O)Cc2cccs2)sc2c1CCCCC2 | – | inactive: 4.53%
10 | CNC(=O)c1c(NC(=O)c2ccc(S(=O)(=O)N(C)c3ccccc3)cc2)sc2c1CCN(C(C)C)C2 | – | inactive: -8.51%
11 | COc1ccccc1N1CC(C(=O)OCC(=O)Nc2cc(C)on2)CC1=O (centres undefined) | – | inactive: -1.17%
12 | COCCN(C(=O)COC(=O)/C=C/c1cccc(OC)c1)c1c(N)n(CC(C)C)c(=O)[nH]c1=O | – | inactive: -7.34%
13 | CC(=O)OC[C@@H]1CN(Cc2ccccc2)C[C@H](n2cnc3c(NC4CCCC4)ncnc32)O1 | – | inactive: 24%
14 | COCCn1c(/C=C/c2ccccc2)nc2ccccc21 | inconclusive: 1.12 µM [activator, full curve, poor fit] | –
15 | O=C(/C=C/c1cccc2ccccc12)NCCC1=CCCCC1 | active: 11.2 µM | –
16 | O=C(Nc1cc2ccccc2oc1=O)C1CCCCC1 | inconclusive: 1.26 µM [activator, full curve, poor fit] | –
17 | Cc1cc(N/N=C/c2ccc(N(C)C)cc2)c2ccccc2n1 | inconclusive: 31.6 µM [activator, single point] | –
18 | CC(=O)c1csc(COc2ccc(Cl)cc2)n1 | inconclusive: 7.08 µM [activator, partial curve, poor fit] | –
19 | COc1cc(C(C(=O)NC2CCCCC2)N(C(=O)Cc2c[nH]c3ccccc23)c2ccccc2C)cc(OC)c1OC (centres undefined) | – | inactive: -46.6%
20 | COc1ccc(N2CCN(C(CNC(=O)C(=O)NCc3ccncc3)c3ccco3)CC2)cc1 (centres undefined) | – | inactive: -1.32%

Row | SMILES | Potency | activation
21 | CCC(C)(C)NC(=O)C(c1ccc(C)cc1)N(Cc1cccnc1)C(=O)c1csnn1 (centres undefined) | – | inactive: -52.4%
22 | CN(Cc1nc(-c2cnccn2)no1)Cc1cccc2ccccc12 | – | inactive: 10.2%
23 | C/C(=N\NC(=O)c1cc(C)oc1C)c1ccc2ccccc2c1 | – | inactive: 23.1%
24 | O=C(COc1ccc(Cl)cc1Cl)Nc1ccccn1 | inconclusive: 14.1 µM [activator, single point] | –
25 | O=C(COc1ccccc1F)N1CCc2ccccc2C1 | inconclusive: 35.5 µM [activator, single point] | –
26 | COc1ccc(N2Cc3ccc(OC)c(OC)c3C2=O)cc1 | inconclusive: 1 µM [activator, full curve, poor fit] | –
27 | O=C(Nc1ccc2c(c1)CCC2)c1c(F)cccc1Cl | active: 5.01 µM | –
28 | CC(C)(C)c1ccc(-c2nnc(N)s2)cc1 | inconclusive: 1.78 µM [activator, partial curve, poor fit] | –
29 | CCCCN(C)C(=O)c1nc2ccccn2c1CNCCCn1ncc2ccccc21 | – | inactive: -4.43%
30 | COc1cc(OC)cc(-c2noc(-c3csc([C@H]4C[C@H](O)[C@@H](CO)O4)n3)n2)c1 | active: 3.16 µM | –
31 | COc1ccccc1NS(=O)(=O)c1cc(NC(=O)c2[nH]c(C)c(C(C)=O)c2C)ccc1N1CCOCC1 | – | inactive: -82.2%
32 | Fc1ccccc1-c1cc2ncccc2cn1 | inconclusive: 8.91 µM [activator, partial curve, poor fit] | –
33 | CCOc1ccc(S(=O)(=O)N2CCN(C(=O)CN3C(=O)NC4(CCCC4)C3=O)CC2)cc1 | – | inactive: -28.8%
34 | c1ccc(-c2csc(Nc3ccc4c(c3)OCCO4)n2)cc1 | inconclusive: 0.631 µM [activator, full curve, poor fit] | –
35 | COC(=O)Cc1c(O)ccn(CCc2c[nH]c3ccccc23)c1=O | – | inactive: -2.45%
36 | O=C(O)c1cccc(N/N=C/c2cccc3ccccc23)c1 | – | inconclusive: -64.3% [activator]
37 | CCOc1ccc(/C=N/N(C)c2ccccc2)cc1OC | active: 4.47 µM | –
38 | Cn1nc(C(=O)NCc2ccccc2)c2c1-c1ccccc1S(=O)(=O)C2 | – | inactive: 1.55%
39 | O=C(Nc1ccc(Cl)cc1[N+](=O)[O-])c1ccc2c(c1)OCCO2 | inconclusive: 1.58 µM [activator, full curve, poor fit] | –
